# Laboratory results: PubChem BioAssay AID651820 (National Center for Advancing Translational Sciences (NCATS), 2012)
# Hit rate of the full screen: of about 340,000 compounds, about 12,000 (3.5%) were called active. Inconclusive means that the source gave no clear call. Such entries were picked first, then a sample of the others. The call rests on the fitted dose curve; in most records, active means well fitted inhibition curve with a large enough effect; inconclusive means small, poorly fitted or top-dose-only effect, or another doubt; inactive means no such curve, though single readings can be large or run the other way. Where the call is inconclusive, the potency comes from a doubtful curve fit.
# Test: qHTS Assay for Inhibitors of Hepatitis C Virus (HCV)
# Details: Huh7.5.1 HCVcc-Cre (HCVcc is cell-culture hepatitis C virus) infection, luciferase reporter, 44 h; activity change, negative = inhibition: at 41.8 µM (top of the series) unless noted
# In short: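 Cells seeded at 1,000/well and cultured 4 h, then compounds added followed by HCVcc-Cre virus (~0.5 moi). After 44 h further culture, luciferase substrate was added, plates held 15 min at room temperature, and luminescence read for 15 sec.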
# On the % scale 0 is the no-effect control and ±100 the full control effect; potency means the concentration at half of the fitted maximal effect; tags describe the fitted curve by direction and shape.
Compound,Potency,"activity change, negative = inhibition"
CC1CCc2c(sc3ncnc(NCc4cccnc4)c23)C1 (configuration not stated),active: 25.1 µM,–
Cc1nc(C(=O)N2CCCC(C(=O)c3cccc(OC(C)C)c3)C2)cs1 (configuration not stated),"inconclusive: 22.4 µM [inhibitor, single point]",–
CCNC(=O)COC(=O)c1sccc1C,inactive,–
CCOC(=O)c1cccc(NC(=O)c2ccc(NC(=O)C3CCCO3)cc2)c1 (configuration not stated),inactive,–
Cc1nc(N2CCOCC2)c2c3c(sc2n1)CCC3,"inconclusive: 31.6 µM [inhibitor, single point]",–
O=c1oc2ccccc2c2c1C(O)CO2 (configuration not stated),inactive,–
COCC(C)n1c(COc2ccccc2F)nnc1SCC(=O)Nc1oc(C)c2c(C)n[nH]c(=O)c12 (configuration not stated),inactive,–
CN(c1ccc(Br)cc1)S(=O)(=O)c1ccc2[nH]cc(C(=O)NCCN3CCOCC3)c(=O)c2c1,inactive,–
Cc1c(OCC(=O)NCc2ccncc2)ccc2c3c(c(=O)oc12)CCCC3,"inconclusive: 3.16 µM [inhibitor, full curve, poor fit]",–
Fc1ccc(NC(=S)N2N=CCC2c2ccccc2)cc1 (configuration not stated),"inconclusive: 31.6 µM [inhibitor, single point]",–
Cc1ccnc(N2C(=O)c3ccccc3C2Nc2ccccc2Cl)c1 (configuration not stated),inactive,–
COc1ccc(C(CNC(=O)C(C)Oc2ccc(Br)cc2)N2CCCCC2)cc1 (configuration not stated),"inconclusive: 31.6 µM [inhibitor, single point]",–
Cc1ccc(C(=O)N(CCc2ccccc2)Cc2ccccc2)cc1S(=O)(=O)N1CCOCC1,"inconclusive: 31.6 µM [inhibitor, single point]",–
CC(C)=CCC/C(C)=C/CNC(=O)C[C@H]1C[C@H](C(=O)N(C(C)C)C(C)C)[C@@]2(C)c3[nH]c4cc(CCC(=O)N(C)C)ccc4c3CCN2C1=O,active: 10 µM,–
COc1cccc2c1O/C(=N\O)C(C(=O)Nc1ccc(C)cc1)C2 (configuration not stated),"inconclusive: 6.31 µM [inhibitor, partial curve]",–
CCOC(=O)c1sc2cc([N+](=O)[O-])cc(SCCO)c2c1N,"inconclusive: 10 µM [inhibitor, partial curve]",–
Cc1cc(/C=N/NC(=O)c2ccncc2)c(C)n1-c1ccccc1,"inconclusive: 22.4 µM [inhibitor, single point]",–
O=C(Nc1ccc(Oc2ccc(NC(=O)Nc3ccccc3Cl)cc2)cc1)Nc1ccccc1Cl,–,inconclusive: -31.4% [inhibitor] [at 8.37 µM]
Cc1ccc(N(CC(=O)N/N=C/c2cccs2)S(C)(=O)=O)cc1,inactive,–
Cc1ccc2c(CN3CCN(S(=O)(=O)c4ccc(Cl)cc4)CC3)cc(=O)oc2c1C,"inconclusive: 1.78 µM [inhibitor, partial curve]",–
Cc1ccc(NC(=O)Cc2csc(-c3ccccc3)n2)cc1F,"inconclusive: 28.2 µM [inhibitor, single point]",–
CCOc1ccc(C(C)NC(=O)Nc2ccccc2C(=O)OC)cc1 (configuration not stated),"inconclusive: 0.501 µM [inhibitor, full curve, poor fit]",–
O=C(CSCC(=O)NN=Cc1ccccc1O)NN=Cc1ccccc1O,"inconclusive: 14.1 µM [inhibitor, single point]",–

Compound,Potency,"activity change, negative = inhibition"
CCOC(=O)C1CCN(C(=O)CS(=O)Cc2nc(-c3ccc(C)cc3)oc2C)CC1 (configuration not stated),inactive,–
Cc1ccc(-c2nnn(CC(=O)N(CC(=O)NC3CCCCC3)c3ccc(F)c(Cl)c3)n2)o1,"inconclusive: 1.58 µM [inhibitor, partial curve]",–
COC(=O)c1ccc2nc(NC(=O)C3CC3)sc2c1,"inconclusive: 31.6 µM [inhibitor, single point]",–
Cc1ccc(/C=C/c2onc(C)c2S(=O)(=O)N2CCC(C(=O)N3CCN(C)CC3)CC2)cc1,"inconclusive: 22.4 µM [inhibitor, single point]",–
COc1ccc(NC(=O)CN(C)CC(=O)Nc2cccc(F)c2)cc1S(=O)(=O)N1CCCCC1,inactive,–
CCS(=O)(=O)c1ncc(Cl)c(C(=O)Nc2ccc(S(=O)(=O)N(C)c3ccccc3)cc2)n1,"inconclusive: 31.6 µM [inhibitor, single point]",–
COc1ccc(C2=NOC(C)(c3nnc(-c4ccccc4)o3)C2)cc1 (configuration not stated),"inconclusive: 11.2 µM [inhibitor, partial curve, poor fit]",–
COc1ccc2c(c1)OC[C@H]1[C@H]2N2C(=O)CN(Cc3ccccc3)C(=O)[C@@]2(C)[C@H]1c1ccccc1,"inconclusive: 3.16 µM [inhibitor, single point]",–
CC(C)NCCCOc1ccc(Cl)cc1Br,inactive,–
O=C(Nc1ccc2oc(-c3ccc4ccccc4c3)nc2c1)c1cccs1,"inconclusive: 2 µM [inhibitor, full curve]",–
O=C(NCC(=O)N1CCC(Cc2ccccc2)CC1)c1ccc(Cl)cc1,"inconclusive: 12.6 µM [inhibitor, partial curve, poor fit]",–
CCOC(=O)c1c(C)[nH]c(C(=O)CSc2nnc(-c3cccs3)n2Cc2ccccc2)c1C,"inconclusive: 35.5 µM [inhibitor, partial curve, poor fit]",–
COc1ccc(C2CC(c3cccs3)=Nc3ccccc3S2)cc1OC (configuration not stated),active: 11.2 µM,–
N#C/C(=N\Nc1ccccc1)C(N)=S,inactive,–
C/C(=N\NC(=O)COc1ccc(C(C)(C)C)cc1)c1ccc(-n2ccnc2)cc1,inactive,–
Cc1noc(C)c1CSCC(=O)N1CCN(c2ccc(F)cc2)CC1,"inconclusive: 31.6 µM [inhibitor, single point]",–
Nc1ncnc2c1ncn2[C@@H]1O[C@H](CNCc2ccc(-c3cc(C(F)(F)F)ccc3Cl)o2)[C@@H](O)[C@H]1O,active: 35.5 µM,–
O=C(c1ccc2c(c1)OCO2)[C@@H]1[C@@H]2C(=O)N(C3CCCCC3)C(=O)[C@@H]2C2c3ccccc3C=CN21 (some centres not stated),inactive,–
Cc1ccc2c(c1)c1ncn(CCC3=CCCCC3)c(=O)c1n2C,"inconclusive: 22.4 µM [inhibitor, single point]",–
CN(CC(=O)Nc1ccc(Cl)c(Cl)c1)Cc1nnc(-c2ccc(F)cc2)o1,inactive,–
O=C1c2ccccc2C(=O)N1CCC(c1ccc(F)cc1)c1ccco1 (configuration not stated),"inconclusive: 10 µM [inhibitor, partial curve]",–
CC1CCCCC1NCC(=O)Nc1ccccc1C(=O)Nc1ccccc1 (configuration not stated),active: 0.891 µM,–
CCOC(=O)C1CCCN(C(=O)c2ccc(-c3ccccc3Cl)o2)C1 (configuration not stated),"inconclusive: 31.6 µM [inhibitor, single point]",–

Compound,Potency,"activity change, negative = inhibition"
COc1ccccc1NC(=O)/C=C/c1ccc2c(c1)OCO2,"inconclusive: 3.55 µM [inhibitor, partial curve, poor fit]",–
CCOC(=O)c1c(-c2cccs2)csc1NC(C)=O,"inconclusive: 25.1 µM [inhibitor, partial curve]",–
COc1cccc(-c2cc(=O)c3cc(NC(=O)c4ccccc4)ccc3[nH]2)c1,"inconclusive: 3.98 µM [inhibitor, partial curve]",–
COc1ccc(OC2CCN(S(=O)(=O)c3ccc(OC)c(OC)c3)CC2)cc1,"inconclusive: 31.6 µM [inhibitor, single point]",–
O=C(COc1ccccc1)NCC(c1ccco1)N1CCN(c2ccccc2F)CC1 (configuration not stated),"inconclusive: 22.4 µM [inhibitor, single point]",–
CCN(c1ccccc1)S(=O)(=O)c1ccc(C(=O)NCC(=O)Nc2ccc(F)c(F)c2F)cc1,"inconclusive: 1.41 µM [inhibitor, partial curve]",–
O=C(Nc1ccncc1)c1cccc(S(=O)(=O)N2CCCC2)c1,"inconclusive: 20 µM [inhibitor, partial curve, poor fit]",–
O=C(Nc1ccc(NC(=O)C2CC2)nc1)c1cccs1,inactive,–
CCn1c(SCC#N)nc2ccccc2c1=O,inactive,–
O=C(NCCC(=O)N(Cc1ccco1)Cc1cccs1)c1ccc(Br)cc1,"inconclusive: 14.1 µM [inhibitor, single point]",–
CCOC(=O)C1=C(C)N=C2SC(C(=O)OC)=CC(=O)N2C1c1ccc(F)cc1 (configuration not stated),inactive,–
CCCn1c(NCc2cc(OC)ccc2OC)nc2ccccc21,"inconclusive: 31.6 µM [inhibitor, single point]",–
CC(CSc1nc2ccccc2s1)Cn1c(N2CCCC2)nc2c1c(=O)[nH]c(=O)n2C (configuration not stated),"inconclusive: 14.1 µM [inhibitor, single point]",–
COC(=O)c1ccc(C)c(NC(=O)CN2C(=O)c3ccccc3S2(=O)=O)c1,"inconclusive: 22.4 µM [inhibitor, single point]",–
COc1ccccc1CNC(=O)COC(=O)c1cc([N+](=O)[O-])ccc1N1CCOCC1,"inconclusive: 10 µM [inhibitor, single point]",–
CC(=O)N1c2ccc(S(=O)(=O)NCC3CCC(C(=O)Nc4cccc(C)n4)CC3)cc2CC1C (configuration not stated),"inconclusive: 5.62 µM [inhibitor, full curve]",–
Cc1ccc2c(c1)-c1c(ssc1=S)C(C)(C)N2C(=O)CSC1=NCCS1,"inconclusive: 25.1 µM [inhibitor, single point]",–
CC(CC(=O)Nc1cccc(S(=O)(=O)N2CCCCC2)c1)c1ccccc1 (configuration not stated),"inconclusive: 22.4 µM [inhibitor, single point]",–
c1ccc(Oc2nc(-c3cccnc3)nc3ccccc23)cc1,"inconclusive: 22.4 µM [inhibitor, single point]",–
Cc1ccc2[nH]c(=O)c(CN(CC3CCCO3)C(=S)Nc3ccccc3)cc2c1 (configuration not stated),"inconclusive: 31.6 µM [inhibitor, single point]",–
CC1CCC(C(C)C)C(OC(=O)COC(=O)c2ccc(N)cc2)C1 (configuration not stated),"inconclusive: 31.6 µM [inhibitor, single point]",–
